This is an account of results in a collection of fitness landscapes (doi:10.1016/j.celrep.2020.107928).

Whole data set: some 81,000 sequences, median “one-hybrid fitness for binding NBS DNA” near -0.1, cut for the highest 2% near 0.36. This is one part of the list.

B1: Caulobacter ParB omega fusion; a variant is named by its letters at X, in order, B8GW30 (parent)
chain: MESVVVGEPGMSEGRRGLGRGLSALLGEVDAAPAQAPGEQLGGSREAPIEILQRNPDQPRRTFREEDLEDLSNSIREKGVLQPILVRPSPDTAGEYQIVAGERAWRAAQRAGLKTVPIMVRELDDLAVLEIGIIENVQRADLNVLEEALSYKVLMEKFERTQENIAQTIGKSXSHVANXMRLLXLPDEVQSYLVSGELTAXHARAIAAAADPVALAKQIIEGGLSVRETEALARKAPNLSAGKSKGGRPPRVKDTDTQALESDLSSVLGLDVSIDHRGSTGTLTITYATLEQLDDLCNRLTRGI

In the assay the parent is B1. In words: one-hybrid fitness for binding NBS DNA (the Noc-binding site; scaled: cognate 1, non-cognate 0); higher = stronger binding. As to conditions: with NBS DNA site. The procedure, abridged: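 Fitness here means the log change in variant-to-wild-type read ratio between plasmids sequenced before and after selection. That scale was set so cognate equals 1 and non-cognate equals 0. The selection was a bacterial one-hybrid screen of Caulobacter ParB libraries, four specificity codons randomised, in E. coli USO carrying a HIS3 reporter with the site 19 bp from the promoter, grown 48 hours at 37°C on M9-minus-histidine with 0.1 mM IPTG and 5 mM 3-AT.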
Consider RANY, for which the “one-hybrid fitness for binding NBS DNA” value was not above 0.2.
With GTII the figure was not above 0.2.
With PLDL, the “one-hybrid fitness for binding NBS DNA” value is not above 0.2.
With LHVR the figure was not above 0.2; with AHAC, not above 0.2.
With TGSG the figure was not above 0.2; with SATA, not above 0.2; with KVGY, not above 0.2.
The value for WSMG was not above 0.2; that for SCTL was not above 0.2.
Consider AAIK, for which the “one-hybrid fitness for binding NBS DNA” value is not above 0.2.
The value for QRHQ was 0.431; that for VAKT was not above 0.2.
For LSMG, the “one-hybrid fitness for binding NBS DNA” value was not above 0.2.
With IVRG the figure was not above 0.2; with ACAR, not above 0.2; with NPRV, not above 0.2.
With QQCV the figure was not above 0.2; with AIST, not above 0.2.
With NRMI the figure was not above 0.2; with ELFV, not above 0.2; with RAFH, not above 0.2.
On to SWHQ, for which the “one-hybrid fitness for binding NBS DNA” value is not above 0.2.
With VFQS the figure was not above 0.2.
The value for NTNW was not above 0.2; that for CKLV was not above 0.2; that for GLAF was not above 0.2.
Take LHMD: the “one-hybrid fitness for binding NBS DNA” value was not above 0.2.
With NNVS the figure was not above 0.2; with VKWM, not above 0.2.
The value for LPTG was not above 0.2.
With PLEM the figure was not above 0.2.
With TSIM, the “one-hybrid fitness for binding NBS DNA” value was not above 0.2.
Take QLEG: the “one-hybrid fitness for binding NBS DNA” value is not above 0.2.
With PFNC the figure was not above 0.2; with RHEK, not above 0.2; with YLET, not above 0.2.
The value for VRDE was not above 0.2; that for RCLN was not above 0.2.
Take AQCV: the “one-hybrid fitness for binding NBS DNA” value is not above 0.2.
The value for YLVD was not above 0.2; that for VKHT was not above 0.2; that for CRMA was not above 0.2.
With SPSP the figure was not above 0.2.
The value for LPSV was not above 0.2.
With VIHS, the “one-hybrid fitness for binding NBS DNA” value is not above 0.2.
Turning to QIWG, the “one-hybrid fitness for binding NBS DNA” value is not above 0.2.
With YTLS the figure was not above 0.2.
With SDDR the figure was not above 0.2.
With PSEL the figure was not above 0.2.
As for KPRK, the “one-hybrid fitness for binding NBS DNA” value is not above 0.2.
LVFC: the “one-hybrid fitness for binding NBS DNA” value is not above 0.2.
With IAKR the figure was 0.221.
With SIKA the figure was not above 0.2; with NSAV, not above 0.2; with PKDT, not above 0.2.
With GRST the figure was not above 0.2.
TTGY: the “one-hybrid fitness for binding NBS DNA” value was not above 0.2.
The value for EPSK was not above 0.2; that for HLHT was not above 0.2; that for TSYT was not above 0.2.
The value for STHG was not above 0.2.
With EETY the figure was not above 0.2; with LEPG, not above 0.2; with HWAF, not above 0.2.
As for IVSY, the “one-hybrid fitness for binding NBS DNA” value was not above 0.2.
Consider GCKW, for which the “one-hybrid fitness for binding NBS DNA” value is not above 0.2.
With PSFC the figure was not above 0.2; with YRMV, not above 0.2.
With TATY, the “one-hybrid fitness for binding NBS DNA” value is not above 0.2.
With VTYS the figure was not above 0.2.
With FRLT the figure was not above 0.2.
With PNRQ the figure was not above 0.2; with LRPM, not above 0.2.
On to QHMI, for which the “one-hybrid fitness for binding NBS DNA” value was not above 0.2.
With HDLT the figure was not above 0.2; with NFHS, not above 0.2.
With LKWY the figure was not above 0.2; with QHFY, not above 0.2; with LFNF, not above 0.2.
With NGTF, the “one-hybrid fitness for binding NBS DNA” value is not above 0.2.
For RERC, the “one-hybrid fitness for binding NBS DNA” value was not above 0.2.
The value for HGVC was not above 0.2.
With RDMK the figure was not above 0.2.
